Assay results published in PubChem BioAssay AID1963576 (National Center for Advancing Translational Sciences (NCATS), 2024).
About 60 (0.1%) of roughly 46,000 compounds were called active. Inconclusive results (about 3%) are left out. Calls follow the shape of the dose curve; as a rule, active = well fitted inhibition curve with a large enough effect; inconclusive = small, poorly fitted or top-dose-only effect; inactive = no such curve, though single readings can be large or run the other way. This is one part of the list.

Assay: Primary qHTS assay for Inhibitors of ovarian cancer metastasis using an organotypic tumor microenvironment (TME) model. Also: nearly all actives have a fitted effect of over 65% in size.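 As to activity change, negative = inhibition: plate controls were DMSO wells for no effect and tomatine positive control wells for full effect.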
Conditions: SKOV3ip1-GFP adhesion/invasion on 3D omental model, fluorescence; series mostly up to 45.8 µM; activity change, negative = inhibition: at the top concentration
In short: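 Primary human omental fibroblast/mesothelial 3D culture pre-formed 48 h. SKOV3ip1-GFP cells added with compounds (0.36-46 umol/L), incubated 2 h RT/16 h 37 C, fixed; GFP cells quantified at 488/509 nm.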

Activity change, negative = inhibition, inactive:
COc1ccc(NC(=O)CCS(=O)(=O)c2cccc3nonc23)cc1Cl 25.9%
CN(C(=O)c1ccc2c(c1)N(Cc1cccc(Cl)c1)C(=O)c1ccccc1S2=O)C1CCCCC1 (configuration not stated) -9.54%
Cc1cc(C)cc(N2C(=O)CSC23C(=O)N(CC(=O)NCCc2ccccc2)c2ccccc23)c1 (configuration not stated) -5.02%
Cc1ccc(C)c(CN2C(=O)CSc3ccc(C(=O)NCc4ccc(F)cc4)cc32)c1 9.34%
Cc1oc2ncn(C)c(=O)c2c1C(=O)NC(C)c1ccccc1 (configuration not stated) 4.54%
COc1ccccc1NCc1cccn1-c1nnc(N2CCOCC2)s1 -2.15%
COc1ccc(N2CCN(C(CNC(=O)C(=O)NCCCN(C)C)c3cccnc3)CC2)cc1 (configuration not stated) -10.7%
O=C(c1cccc(Br)c1)N1CCN(Cc2cc(=O)n3nc(-c4ccccc4)sc3n2)CC1 8.93%
CCC(=O)N1c2nc(-c3ccco3)nn2C2(CCCCC2)[C@@H]2CCCC[C@@H]21 4.69%
Cc1ccc(CSc2nc3cccnc3n2Cc2ccc(C(=O)NCCc3ccccc3)cc2)cc1 -3.48%
Cn1cnc(-c2cc3nccc(Oc4ccc(NC(=S)NC(=O)Cc5ccccc5)cc4F)c3s2)c1 7.56%
COc1ccc(-c2cn3nc(N4CCCC(C(=O)Nc5ccc(C)c(C)c5)C4)sc3n2)cc1 (configuration not stated) 7.58%
Nc1nc(OCc2ccccc2)c2[nH]cnc2n1 2.45%
Cc1ccc(-n2nnnc2CNC(=O)c2ccccc2S(C)(=O)=O)cc1C 0.344%
CCc1ccc2occ(CC(=O)Nc3c(C(=O)Nc4ccc(C)cc4)oc4ccccc34)c2c1 -25%
CCCn1cc(S(=O)(=O)c2cc(C)ccc2C)c(=O)c2cc(F)c(N3CCOCC3)cc21 -3.39%
O=C(CCC(=O)OCC(=O)c1ccc(Cl)cc1)Nc1ccc(Oc2ccccc2)cc1 -21%
COc1ccc(-n2nc(C(=O)Nc3ccccc3OC)c3c4ccccc4n(C)c3c2=O)cc1Cl 6.63%
CC(C)c1cnc2c(c1SCC(=O)Nc1ccccc1C(F)(F)F)c(=O)n(C)c(=O)n2C 8.4%
Cc1ccc(CSc2nc(-c3cccs3)ccc2C#N)cc1 -9.24%
CCCNc1ncnc2onc(C)c12 1.46%
Cc1cccc(N2CCN(c3cc(C)nc4c(-c5ccc(Cl)cc5)c(C)nn34)CC2C)c1 (configuration not stated) -9.69%
Cc1nnc(SCc2ccc(Cl)cc2)c2cc3occc3n12 -1.26%
CC(=O)N1CCCc2cc(S(=O)(=O)N(C)CC(=O)Nc3ccc(C)cc3C)ccc21 0.396%
CC1CCN(c2nn3c(=O)c(C(=O)NCc4ccc(Cl)cc4)cnc3s2)CC1 3.76%
COc1ccc(CCN(C)CCCC(C#N)(c2ccc(OC)c(OC)c2)C(C)C)cc1OC (configuration not stated) -9.23% [at 92.2 µM]
Cc1noc(Cn2c(=O)c3ccccc3n(CC(=O)Nc3cccc(Cl)c3C)c2=O)n1 1.58%
Cc1ccc(CNc2nc3ccccc3n3c(C)nnc23)cc1 1.27%
CCCn1c2ccccc2c2cnn(CC(=O)N3CCC(C(=O)OCC)CC3)c(=O)c21 2.55%
Cc1ccccc1-n1cc(-c2ccccc2)nc1SCC(=O)Nc1ccc(F)cc1 -19.9%
COc1ccc(-n2c(=O)c3c4c(sc3n(Cc3cc(C)ccc3C)c2=O)CN(C(C)=O)CC4)c(OC)c1 0.205%
COc1cccc(C2c3c(oc4ccc(C)cc4c3=O)C(=O)N2CCCN2CCOCC2)c1OC (configuration not stated) -4%
O=C(Nc1cccc(NC(=O)c2ccc(Br)o2)c1)c1ccccc1 3.62%
O=C(NCCN1CCN(c2ccccc2)CC1)Nc1ccccc1Br 5.15%
Cc1ccc(Sc2c(C)nn(C(=O)COc3ccc(F)cc3)c2C)cc1 -3.34%
COc1ccc(C2C(=O)N(C3CCC(C)CC3)CC(=O)N2Cc2ccccc2Cl)cc1OC (configuration not stated) 5.3%
Cc1cc2oc(=O)c(CC(=O)O)c(C)c2c2occ(-c3ccc(F)cc3)c12 4.41%
Cc1cccc(CNC(=O)C2CCN(c3nnc(-n4c(C)ccc4C)s3)CC2)c1 3.47%
Cc1ccc(N2CC(NC(=O)c3ccc(S(=O)(=O)N4CCOCC4)cc3)CC2=O)cc1C (configuration not stated) -11.4%
Cc1cccc(-c2noc(CN(C(=O)c3ccccc3Cl)C(C)C)n2)c1 -8.65%
O=C(c1ccc2c(c1)OCCO2)N(Cc1cccnc1)c1nc2c(F)cccc2s1 3.36%
Cc1ccc2c(c1)c1c(c(=O)n(Cc3ccccc3)c(=O)n1Cc1cccc(C(F)(F)F)c1)n2C 65.2%
CCCSc1oc(-c2cccs2)nc1S(=O)(=O)c1ccc(Cl)cc1 -6.66%
Cc1ccc(CNc2nc3ccccc3c3nc(-c4cccc(C)c4)nn23)cc1 3.05%
COc1ccc(Cn2c(CNS(=O)(=O)c3ccc4c(c3)CCCC4)nc3cccnc32)cc1 -4.3%
O=C(NCCc1ccc(Cl)cc1)c1ccc(Cn2c(=O)c3cccn3c3cccnc32)cc1 -35.4%
CC1CCCN(Cc2cn3c(-c4cccc(Br)c4)nnc3s2)C1 (configuration not stated) 13%
CCCc1cc(=O)[nH]c(=S)[nH]1 -3.17%
O=C(CSC1=Nc2ccccc2N=C(c2ccc(F)cc2)C1)NCc1ccccc1 -4.59%
c1csc(C2=NC(c3ccncc3)=Nc3ccccc3N2)c1 -6.01%
Cc1ccccc1C(=O)NCc1nc2cccnc2n1Cc1ccccc1 41.9%
CC(C(=O)Nc1cc(C(F)(F)F)ccc1Cl)n1nnc2sc3c(c2c1=O)CCCC3 (configuration not stated) 4.3%
COc1ccccc1C(=O)n1nc(-c2ccco2)nc1NCc1ccc(Cl)cc1 -20.4%
CCOc1ccccc1C(=O)Oc1c(Sc2ccccc2)c(C)nn1C(C)(C)C 3.13%
COc1ccc(S(=O)(=O)c2c(Nc3ccc(F)cc3)sc(C(=O)c3ccc4c(c3)OCO4)c2N)cc1 -1.57%
CCN1CCN(C(c2ccccc2)c2sc3nc(-c4ccco4)nn3c2O)CC1 (configuration not stated) 1.32%
Cc1ccc(-c2csc(=Nc3ccccc3)n2Cc2ccc3c(c2)OCO3)cc1C 2.19%
COCCc1nn2c(=O)cc(COC(=O)COc3ccc(F)cc3)nc2s1 2.22%
COc1ccccc1NC(=O)c1c(NCc2ccc(C)o2)sc2c1CCC(C)C2 (configuration not stated) -4.15%
CCCOC(=O)c1c(NC(=O)C2c3ccccc3Oc3ccccc32)sc2c1CCC(C)C2 (configuration not stated) -2.86%
CCCSc1ncc(Cl)c(C(=O)N(Cc2ccc(N(C)C)cc2)C2CCS(=O)(=O)C2)n1 (configuration not stated) -7.54%
N#Cc1nc(-c2ccc(COc3ccccc3)o2)oc1NCc1ccccc1 5.42%
Cc1ccc(CNC(=O)CSc2nc(=O)[nH]c3c2CCCC3)cc1 -6.46%
CN(C)CCCN(C(=O)c1cccs1)c1nc2ccc(F)cc2s1 1.48%
CC(C)C12CN3CC(C(C)C)(CN(C1)C3c1ccc(Cl)cc1)C2=O (configuration not stated) -7.52%
COc1ccc(-c2nc3ccccc3o2)cc1NC(=O)C(C)Oc1ccc(Cl)cc1Cl (configuration not stated) -5.65%
Cc1nc2ccccc2n1CCc1nc2c3ccccc3nc(SCC(=O)Nc3ccc(Br)cc3F)n2n1 11.5%
O=C(O)[C@H](Cc1c[nH]c2ccccc12)N1C(=O)c2ccccc2C1=O -4.68% [at 92.2 µM]
CN1CCN(c2oc(-c3ccc(COc4ccc(Cl)cc4)o3)nc2C#N)CC1 3.31%
Cc1ccccc1-n1c(/C=C/c2c(C)n(C)c3ccccc23)nc2ccccc2c1=O -6.84%
CC(C)(C)OC(=O)N1CCC(c2c(C(=O)N3CCN(c4ncccn4)CC3)cnn2-c2ccccc2)CC1 -4.84%

outcome, inactive:
CCOC(=O)C1=C(CS(=O)(=O)c2ccc(C)cc2)NC(=O)NC1c1ccc(C(C)C)cc1 (configuration not stated)
CC(C)Oc1ccc(CNC(=O)CN2C(=O)CCc3cc(S(=O)(=O)N4CCCCC4)ccc32)cc1
Cc1ccc(CSCc2ccc(C(=O)NCCc3ccc(Cl)cc3)o2)cc1
O=C(CSC1=Nc2ccccc2N=C(c2ccc(F)cc2)C1)NCc1ccc(F)cc1
CCOc1c(Cl)cc(Cl)cc1CNCCSc1nnnn1C
CCS(=O)(=O)N1CCc2cc(C(=O)Nc3cccc(Cl)c3C)ccc21
Cc1nc2c(-c3ccccc3)c(C)nn2c(C)c1CCC(=O)NCc1ccccc1Cl
O=C(Nc1cc2c(cc1C(=O)c1ccccc1Cl)OCCO2)c1ccc(Br)cc1
FC(F)(F)c1cc(-c2ccccc2)nc2cc(-c3ccc(Br)cc3)nn12
COC(=O)c1c(SCC(=O)Nc2cc(C)cc(C)c2)[nH]c2ccccc2c1=O
Cc1cc(S(=O)(=O)Nc2ccc(-c3ccc(N4CCCCC4)nn3)cc2)c(C)cc1Cl
COc1cccc(-c2nn(C)c3sc(C(=O)NCCc4ccc(Cl)cc4)cc23)c1
Cc1ccc(C(=O)n2nc(C)c(S(=O)(=O)N3CCOCC3)c2C)cc1
CCOc1ccc(NC(=O)NCCCN2CCN(c3ccc(F)cc3)CC2)cc1
N#Cc1nc(/C=C/c2ccc(F)cc2)oc1N1CCN(c2ccccc2)CC1
COc1ccc(CCNC(=O)CCCn2c(=O)c3ccccc3n(Cc3ccc(F)cc3Cl)c2=O)cc1OC
Cn1c(C(=O)NCCc2ccccc2)cc2c(=O)n3ccccc3nc21
COc1ccc(CNC(=O)CCc2c(C)nn(-c3ccc(N4CCCCC4)nn3)c2C)c(OC)c1
O=C(c1cnc(N2CCCCC2)c2ccccc12)N1CCN(c2ccccc2F)CC1
CCOc1ccc(C(=O)NCCc2sc3nc(-c4ccc(Cl)cc4)nn3c2C)cc1OCC
CC(=O)N1CCc2cc(CNS(=O)(=O)c3ccc(Br)s3)ccc21
Cc1ccc2oc(-c3ccc(C)c(NC(=O)c4ccc(C(C)(C)C)cc4)c3)nc2c1
COc1cccc(CNC(=O)c2nn(-c3ccccc3Cl)nc2CO)c1
CCC(O)c1cc2c(cc1NC(=O)c1cccc(Br)c1)OCCO2 (configuration not stated)
COc1ccc(NC(=O)Cn2cnc3sc(C)c(S(=O)(=O)N4CCN(C)CC4)c3c2=O)cc1Cl
O=C(CN1C(=O)CCc2cc(S(=O)(=O)N3CCOCC3)ccc21)Nc1cccc(Cl)c1
